Reference: PubChem BioAssay AID588795 (National Center for Advancing Translational Sciences (NCATS), 2011)
In all, about 390,000 compounds went through this assay and about 1,400 (0.36%) were called active. The shares of active, inactive and inconclusive entries below differ from those in the screen. The call rests on the fitted dose curve; in most records, active means well fitted inhibition curve with a large enough effect; inconclusive means small, poorly fitted or top-dose-only effect; inactive means no such curve, though single readings can be large or run the other way. Potencies of inconclusive entries are doubtful fits and often do not repeat.

Each compound was assayed against Flap endonuclease 1 (Homo sapiens) (UniProt P39748) (assay: qHTS Assay for the Inhibitors of Human Flap endonuclease 1 (FEN1).). Settings: Recombinant FEN1 flap cleavage, fluorescence, 15 min; series mostly up to 114 µM; activity change, negative = inhibition: at the top concentration.
UniProt P39748, sequence (P39748 whole entry, looked up): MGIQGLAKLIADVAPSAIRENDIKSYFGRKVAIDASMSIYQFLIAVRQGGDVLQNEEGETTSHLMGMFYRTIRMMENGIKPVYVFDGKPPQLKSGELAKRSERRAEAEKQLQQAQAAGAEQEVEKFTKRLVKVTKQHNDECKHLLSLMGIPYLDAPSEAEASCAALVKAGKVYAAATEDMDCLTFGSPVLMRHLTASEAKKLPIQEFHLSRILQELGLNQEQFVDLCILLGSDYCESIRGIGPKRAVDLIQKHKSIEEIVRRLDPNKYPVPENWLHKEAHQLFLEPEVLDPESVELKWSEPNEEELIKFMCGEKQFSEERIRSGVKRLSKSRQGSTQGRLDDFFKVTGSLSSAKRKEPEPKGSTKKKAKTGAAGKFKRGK
Outline: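 In this screen, 50 nM flap DNA substrate was added to 10 nM FEN1 pretreated with compound for 15 min at room temperature; cleavage was followed with reads at 0 and 15 min, and Hill fitting gave concentration–response parameters.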
Further: nearly all actives have a fitted effect of over 65% in size.
On the % scale 0 is the no-effect control and ±100 the full control effect; potency means the concentration at half of the fitted maximal effect; tags describe the fitted curve by direction and shape.

SMILES | Potency | activity change, negative = inhibition
Cc1cccc(NC(=O)CN2C(=O)N/C(=C\c3ccccc3OCc3ccc(C(=O)O)cc3)C2=O)c1 | inconclusive: 89.1 µM [inhibitor, single point] | –
N/C(=N\OC(=O)c1ccc2c(c1)OCO2)c1cccc([N+](=O)[O-])c1 | – | inactive: 12%
O=C(O)c1ccc(N2C(=O)CC(N3CCN(c4ccc(Cl)cc4)CC3)C2=O)cc1 (stereo unspecified) | – | inactive: -4.15%
COc1cc(/C=C2\SC(=S)N(NC(=O)c3ccncc3)C2=O)ccc1O | inconclusive: 79.4 µM [inhibitor, single point] | –
Cc1ccc(-c2nnn(CC(=O)N(c3ccccc3F)C(C(=O)NCC3CCCO3)c3c[nH]c4ccccc34)n2)cc1 (stereo unspecified) | inconclusive: 79.4 µM [inhibitor, partial curve, poor fit] | –
Nc1nc2ncc(C(=O)c3cc(Cl)cc(Cl)c3O)cc2s1 | – | inactive: -12.4%
CCCNC(=O)CN1CCC(c2nc3ccccc3[nH]2)CC1 | inconclusive: 50.1 µM [inhibitor, partial curve] | –
Oc1ccc(Nc2nc(NCC3CCCO3)c3ccccc3n2)cc1 (stereo unspecified) | inconclusive: 56.2 µM [inhibitor, partial curve] | –
C=CCNC(=O)c1oc2ccc(S(=O)(=O)N(CC)CC)cc2c1C | inconclusive: 70.8 µM [inhibitor, single point] | –
Cc1cccc(NC(=O)CNC(=O)CCc2nc3sc4c(c3c(=O)[nH]2)CCCC4)c1C | active: 79.4 µM | –
COc1cccc(-c2cc3nc4c(c(NCC(C)(C)CN(C)C)n3n2)CCCC4)c1 | inconclusive: 56.2 µM [inhibitor, partial curve, poor fit] | –
CCN1C(=O)[C@H]2[C@@H](c3ccc(-c4cccc(Cl)c4)cc3)N[C@@](CC(C)C)(C(=O)OC)[C@H]2C1=O | inconclusive: 31.6 µM [inhibitor, partial curve, poor fit] | –
Cc1ccc(-c2cc(-c3ccco3)c(C#N)c(=O)[nH]2)cc1 | inconclusive: 79.4 µM [inhibitor, partial curve, poor fit] | –
COc1ccc(OC)c(NC(=O)C(=O)/C=C(\O)c2cc(OC)ccc2OC)c1 | active: 39.8 µM | –
CCn1cc(C(=O)NN)c(=O)c2cc(F)c(N3CCOCC3)cc21 | inconclusive: 89.1 µM [inhibitor, single point] | –
CCc1ccc(Nc2nnc(SCC(=O)Nc3cccc(S(=O)(=O)NC4=NCCCCC4)c3)s2)cc1 | inconclusive: 89.1 µM [inhibitor, partial curve, poor fit] | –
CC(=O)c1cccc(NC(=O)Nc2nnc(N3CCCC3)s2)c1 | – | inactive: 10%
CN(Cc1ccccc1)S(=O)(=O)c1ccc2[nH]c3c(c2c1)CCCCC3 | inconclusive: 31.6 µM [inhibitor, partial curve, poor fit] | –
O=C(Nc1ccc(S(=O)(=O)N2CCOCC2)cc1)c1ccc([N+](=O)[O-])o1 | inconclusive: 17.8 µM [inhibitor, partial curve, poor fit] | –
CC1=NN(c2ccccc2C(=O)O)C(=O)C1N=Nc1ccccc1 (stereo unspecified) | inconclusive: 3.98 µM [inhibitor, full curve] | –
CCOc1cc(/C=N/O)cc(Br)c1OCc1ccc(Cl)cc1 | inconclusive: 50.1 µM [inhibitor, partial curve, poor fit] | –
Cc1ccccc1-c1nn2c(-c3ccccc3)nnc2s1 | inconclusive: 56.2 µM [inhibitor, partial curve, poor fit] | –

SMILES | Potency | activity change, negative = inhibition
C/C(N)=C(/C#N)C(=O)CSc1nnc(NC(C)C)s1 | active: 35.5 µM | –
Cc1cc(-c2ccccc2)[nH]c(=O)c1C#N | – | inactive: 7.77%
Cc1snc(SCC(=O)c2ccc(Cl)cc2)c1C#N | inconclusive: 79.4 µM [inhibitor, partial curve, poor fit] | –
Cc1ccccc1C(=O)N1CCc2cc(-c3nc(NC(=O)Cc4ccc5c(c4)OCO5)sc3C)ccc21 | – | inactive: 8.48%
COc1ccc(Cn2c(C)c(C)c(C#N)c2NC(=O)Nc2cccc(C)c2)cc1 | inconclusive: 79.4 µM [inhibitor, partial curve, poor fit] | –
COc1cc(C(=O)OCC(=O)NC2CCS(=O)(=O)C2)c([N+](=O)[O-])cc1OC (stereo unspecified) | – | inactive: -1.12%
CN(C1=C(N2CCOCC2)C(=O)c2ccccc2C1=O)c1ccccc1 | – | inactive: -2.96%
COc1ccc(C2=CC(c3cccc(C)c3)n3nnnc3N2)cc1 (stereo unspecified) | inconclusive: 89.1 µM [inhibitor, single point] | –
COc1ccc(C2C(C#N)=C(N)Oc3cc(C)n(Cc4ccco4)c(=O)c32)cc1 (stereo unspecified) | inconclusive: 50.1 µM [inhibitor, partial curve] | –
COc1ccc2nc3sc(C(=O)NCCCN4CCc5ccccc5C4)cc3cc2c1 | inconclusive: 50.1 µM [inhibitor, partial curve] | –
O=C(COC(=O)/C=C/c1ccc(Cl)cc1Cl)Nc1cc(C(F)(F)F)ccc1N1CCOCC1 | inconclusive: 35.5 µM [inhibitor, single point] | –
Oc1ccc(/C=N/Nc2ncnc3nc[nH]c23)cc1 | inconclusive: 39.8 µM [inhibitor, partial curve] | –
Cc1ccc(O)c(CNc2cccc3cccnc23)c1 | inconclusive: 50.1 µM [inhibitor, partial curve] | –
CCN(CC)CCCNC(=O)c1cc2c(-c3ccc(Cl)cc3)nn(C)c2s1 | active: 44.7 µM | –
CC(=O)Nc1cccc(/C(C)=N/Nc2ccc(S(=O)(=O)Nc3ccccc3C(=O)O)cc2[N+](=O)[O-])c1 | active: 79.4 µM | –
Cc1ccc(NC(=O)Cn2c(=O)n(CCC(=O)NCc3ccc4c(c3)OCO4)c(=O)c3sccc32)c(C)c1 | – | inactive: -3.86%
COc1ccccc1NC(=O)CSc1nc2ncccc2[nH]1 | – | inactive: 7.52%
O=C(Nc1ccc(S(=O)(=O)Nc2nccs2)cc1)c1cccc(N2C(=O)c3ccccc3C2=O)c1 | inconclusive: 89.1 µM [inhibitor, single point] | –
O=C(CSc1ccc(-c2ccco2)nn1)N1CCCC1 | – | inactive: -16.3%
CCc1ccccc1NC(=O)CN1C(=O)c2cccnc2Oc2ccc(Cl)cc21 | – | inactive: 0.448%
C[n+]1c(/C=C/c2ccc(O)cc2)ccc2ccccc21 | inconclusive: 50.1 µM [inhibitor, partial curve] | –
CCOC(=O)c1c(NC(=O)CN(CC)CC)sc2c1CCN(C(=O)OCC)C2 | inconclusive: 79.4 µM [inhibitor, partial curve, poor fit] | –

SMILES | Potency | activity change, negative = inhibition
CCOc1ccc(NC(=O)CSc2cn(CC(=O)N3CCCCCC3)c3ccccc23)cc1 | – | inactive: 7.69%
CC1CN(c2nc(-c3ccccc3)nc3ccccc23)CC(C)O1 (stereo unspecified) | inconclusive: 89.1 µM [inhibitor, partial curve, poor fit] | –
O=C1CCC/C(=N\NC(=O)c2ccc(COc3ccccc3-c3ccccc3)cc2)C1 | inconclusive: 79.4 µM [inhibitor, partial curve, poor fit] | –
Cc1cc(OCC(=O)Nc2ccc(Br)cc2)cc2c1C(=O)CC(C)(C)O2 | inconclusive: 100 µM [inhibitor, single point] | –
CCOC(=O)c1sc(N/N=C/c2ccccc2)nc1C | – | inactive: 8.17%
CCn1c(SCC(=O)Nc2sc3c(c2C(N)=O)CCC(C)C3)nnc1-c1ccco1 (stereo unspecified) | inconclusive: 44.7 µM [inhibitor, partial curve, poor fit] | –
COc1ccccc1-n1c(/C=C/c2c(C)n(C)c3ccccc23)nc2ccccc2c1=O | – | inactive: -22.1%
CCOC(=O)c1ccccc1NC1c2ccccc2C(=O)N1c1ccc(C)cn1 (stereo unspecified) | inconclusive: 79.4 µM [inhibitor, partial curve, poor fit] | –
S=C(NCCc1ccccc1)NCc1ccccc1Cl | inconclusive: 89.1 µM [inhibitor, partial curve, poor fit] | –
S=c1[nH]nc(-c2cc(-c3ccccc3)n[nH]2)n1/N=C/C=C/c1ccco1 | inconclusive: 50.1 µM [inhibitor, partial curve] | –
NN=C1c2ccccc2C(=O)C1C(=O)C(c1ccccc1)c1ccccc1 (stereo unspecified) | inconclusive: 63.1 µM [inhibitor, partial curve, poor fit] | –
Cc1ccc(NC(=O)CN(C)Cc2ccc(Cl)cc2)cc1 | inconclusive: 89.1 µM [inhibitor, partial curve, poor fit] | –
Cc1cccc(C)c1Nc1nc2ccccc2nc1NS(=O)(=O)c1ccccc1 | inconclusive: 89.1 µM [inhibitor, single point] | –
CCC1C(=O)CC2CCN3C(=O)CCC1C23 (stereo unspecified) | – | inactive: -12.5%
O=c1[nH]c2ccc(Br)cc2c(-c2ccccc2)c1CN1CCOCC1 | inconclusive: 79.4 µM [inhibitor, partial curve, poor fit] | –
Cc1cc(NS(=O)(=O)c2ccc(NC(=O)c3cc(-c4cccnc4)nc4ccc(Cl)cc34)cc2)no1 | inconclusive: 89.1 µM [inhibitor, partial curve, poor fit] | –
O=C(Nc1ccc(-c2cn3ccsc3n2)cc1)C1CCCC1 | inconclusive: 89.1 µM [inhibitor, partial curve, poor fit] | –
Cc1c(C(=O)Nc2ccc(C(C)C)cc2)sc2nc[nH]c(=O)c12 | – | inactive: -5.09%
CC(C)CNC(=O)C(=O)N/N=C/c1cccs1 | inconclusive: 56.2 µM [inhibitor, single point] | –
NS(=O)(=O)c1ccc(-c2ccc(/C=N/Nc3ccc(C(=O)O)cc3)o2)cc1 | inconclusive: 56.2 µM [inhibitor, partial curve, poor fit] | –
Cc1oc(-c2ccccc2)cc1C(=O)Nc1ccccc1 | – | inactive: 3.64%
Clc1ccccc1C(c1ccccc1)(c1ccccc1)n1ccnc1 | inconclusive: 70.8 µM [inhibitor, partial curve, poor fit] | –
